pKi: −log10 of the molar value.
Biological target: Recombinant heterodimeric HCV NS3/NS4A protease (strain 1a) (Hepatitis C virus genotype 1a, UniProt P27958)
Assay: HCV continuous assay (spectrophotometric HCV NS3/NS4A serine protease inhibition assay)
Type: biochemical, HCV (strain 1a)
Details: Table 1; ranges of Ki* values in HCV continuous assay
Source text: The present invention relates to novel HCV protease inhibitors. This utility can be manifested in their ability to inhibit the HCV NS3/NS4a serine protease.
Assay for HCV Protease Inhibitory Activity:
• Spectrophotometric Assay: Spectrophotometric assay for the HCV serine protease can be performed on the inventive compounds by following the procedure described by R. Zhang et al, Analytical Biochemistry, 270 (1999) 268-275, the disclosure of which is incorporated herein by reference. The assay based on the proteolysis of chromogenic ester substrates is suitable for the continuous monitoring of HCV NS3 protease activity. The substrates are derived from the P side of the NS5A-NS5B junction sequence (Ac-DTEDWX(Nva), where X=A or P) whose C-terminal carboxyl groups are esterified with one of four different chromophoric alcohols (3- or 4-nitrophenol, 7-hydroxy-4-methyl-coumarin, or 4-phenylazophenol). Illustrated below are the synthesis, characterization and application of these novel spectrophotometric ester substrates to high throughput screening and detailed kinetic evaluation of HCV NS3 protease inhibitors. Materials and Methods:
Materials: Chemical reagents for assay related buffers are obtained from Sigma Chemical Company (St. Louis, Mo.). Reagents for peptide synthesis were from Aldrich Chemicals, Novabiochem (San Diego, Calif.), Applied Biosystems (Foster City, Calif.) and Perseptive Biosystems (Framingham, Mass.). Peptides are synthesized manually or on an automated ABI model 431A synthesizer (from Applied Biosystems). UV/VIS Spectrometer model LAMBDA 12 was from Perkin Elmer (Norwalk, Conn.) and 96-well UV plates were obtained from Corning (Corning, N.Y.). The prewarming block can be from USA Scientific (Ocala, Fla.) and the 96-well plate vortexer is from Labline Instruments (Melrose Park, Ill.). […] Protein concentrations are determined by the Biorad dye method using recombinant HCV protease standards previously quantified by amino acid analysis. Prior to assay initiation, the enzyme storage buffer (50 mM sodium phosphate pH 8.0, 300 mM NaCl, 10% glycerol, 0.05% lauryl maltoside and 10 mM DTT) is exchanged for the assay buffer (25 mM MOPS pH 6.5, 300 mM NaCl, 10% glycerol, 0.05% lauryl maltoside, 5 μM EDTA and 5 μM DTT) utilizing a Biorad Bio-Spin P-6 prepacked column. • Substrate Synthesis and Purification: The synthesis of the substrates is done as reported by R. Zhang et al, (ibid.) and is initiated by anchoring Fmoc-Nva-OH to 2-chlorotrityl chloride resin using a standard protocol (K. Barlos et al, Int. J. Pept. Protein Res., 37 (1991), 513-520). The peptides are subsequently assembled, using Fmoc chemistry, either manually or on an automatic ABI model 431 peptide synthesizer. […] The combined filtrate and DCM wash is evaporated azeotropically (or repeatedly extracted by aqueous Na2CO3 solution) to remove the acid used in cleavage. The DCM phase is dried over Na2SO4 and evaporated.
The ester substrates are assembled using standard acid-alcohol coupling procedures (K. Holmber et al, Acta Chem. Scand., B33 (1979) 410-412). Peptide fragments are dissolved in anhydrous pyridine (30-60 mg/ml) to which 10 molar equivalents of chromophore and a catalytic amount (0.1 eq.) of para-toluenesulfonic acid (PTSA) were added. Dicyclohexylcarbodiimide (DCC, 3 eq.) is added to initiate the coupling reactions. Product formation is monitored by HPLC and can be found to be complete following 12-72 hour reaction at room temperature. Pyridine solvent is evaporated under vacuum and further removed by azeotropic evaporation with toluene.

| SMILES | pKi |
| --- | --- |
| C=CCNC(=O)C(=O)C(CCCC)NC(=O)[C@@H]1[C@@H]2[C@H](CN1C(=O)[C@@H](NC(=O)N[C@H](CN1Cc3sccc3S1(=O)=O)C(C)(C)C)C1CCCCC1)C2(C)C (stereo partly drawn) [Compound 5178] | ≥ 7.30 |
| C=CCNC(=O)C(=O)C(CCCC)NC(=O)[C@@H]1[C@@H]2[C@H](CN1C(=O)[C@@H](NC(=O)N[C@H](CN1CCCNS1(=O)=O)C(C)(C)C)C(C)(C)C)C2(C)C (stereo partly drawn) [Compound 5217] | < 7.30 |
| C#CCCC(NC(=O)[C@@H]1[C@@H]2[C@H](CN1C(=O)[C@@H](NC(=O)N[C@H](CN1CCCS1(=O)=O)C(C)(C)C)C(C)(C)C)C2(C)C)C(=O)C(=O)NCCC (stereo partly drawn) [Compound 5145] | ≥ 7.30 |
| CCCCC(NC(=O)[C@@H]1[C@@H]2[C@H](CN1C(=O)[C@@H](NC(=O)N[C@H](CN1Cc3sccc3S1(=O)=O)C(C)(C)C)C1CCCCC1)C2(C)C)C(=O)C(N)=O (stereo partly drawn) [Compound 5192] | ≥ 7.30 |
| C#CCCC(NC(=O)[C@@H]1[C@@H]2[C@H](CN1C(=O)[C@@H](NC(=O)N[C@H](CN1CCCCS1(=O)=O)C1CCCCC1)C(C)(C)C)C2(C)C)C(=O)C(=O)NCC=C (stereo partly drawn) [Compound 5230] | ≥ 7.30 |
| CCCC(NC(=O)[C@@H]1[C@@H]2[C@H](CN1C(=O)[C@@H](NC(=O)N[C@H](CN1CCCN(C)S1(=O)=O)C(C)(C)C)C(C)(C)C)C2(C)C)C(=O)C(N)=O (stereo partly drawn) [Compound 5137] | ≥ 7.30 |
| C=CCNC(=O)C(=O)C(CC1CC1)NC(=O)[C@@H]1[C@@H]2[C@H](CN1C(=O)[C@@H](NC(=O)N[C@H](CN1Cc3ccccc3S1(=O)=O)C(C)(C)C)C1(C)CCCCC1)C2(C)C (stereo partly drawn) [Compound 5257] | ≥ 7.30 |
| C#CCCC(NC(=O)[C@@H]1[C@@H]2[C@H](CN1C(=O)[C@@H](NC(=O)N[C@H](CN1Cc3sccc3S1(=O)=O)C(C)(C)C)C(C)(C)C)C2(C)C)C(=O)C(=O)NCC=C (stereo partly drawn) [Compound 5169] | ≥ 7.30 |
| C=CCNC(=O)C(=O)C(CCC)NC(=O)[C@@H]1[C@@H]2[C@H](CN1C(=O)[C@@H](NC(=O)N[C@H](CN1CCN(CC3CC3)S1(=O)=O)C(C)(C)C)C1CCCCC1)C2(C)C (stereo partly drawn) [Compound 5198] | ≥ 7.30 |
| C=CCNC(=O)C(=O)C(CCC)NC(=O)[C@@H]1[C@@H]2[C@H](CN1C(=O)[C@@H](NC(=O)N[C@H](CN1C(=O)c3ccccc3S1(=O)=O)C(C)(C)C)C(C)(C)C)C2(C)C (stereo partly drawn) [Compound 5162] | ≥ 7.30 |
| C=CCNC(=O)C(=O)C(CCC(F)(F)F)NC(=O)[C@@H]1[C@@H]2[C@H](CN1C(=O)[C@@H](NC(=O)N[C@H](CN1CCCS1(=O)=O)C(C)(C)C)C1CCCCC1)C2(C)C (stereo partly drawn) [Compound 5141] | ≥ 7.30 |
| CNC(=O)C(=O)C(CC1CC1)NC(=O)[C@@H]1[C@@H]2[C@H](CN1C(=O)[C@@H](NC(=O)N[C@H](CN1CCCS1(=O)=O)C(C)(C)C)C(C)(C)C)C2(C)C (stereo partly drawn) [Compound 5117] | ≥ 7.30 |
| CC(C)(C)[C@H](NC(=O)N[C@H](CN1CCCS1(=O)=O)C(C)(C)C)C(=O)N1C[C@H]2[C@@H]([C@H]1C(=O)NC(CC1CC1)C(=O)C(N)=O)C2(C)C (stereo partly drawn) [Compound 5113] | ≥ 7.30 |
| CCCC(NC(=O)[C@@H]1[C@@H]2[C@H](CN1C(=O)[C@@H](NC(=O)N[C@H](CN1CCCS1(=O)=O)C(C)(C)C)C1CCCCC1)C2(C)C)C(=O)C(=O)NC (stereo partly drawn) [Compound 5136] | ≥ 7.30 |
| C=CCNC(=O)C(=O)C(CCCC)NC(=O)[C@@H]1[C@@H]2[C@H](CN1C(=O)[C@@H](NC(=O)N[C@H](CN1Cc3ccccc3S1(=O)=O)C(C)(C)C)C(C)(C)C)C2(Cl)Cl (stereo partly drawn) [Compound 5246] | ≥ 7.30 |
| C=CCNC(=O)C(=O)C(CCC)NC(=O)[C@@H]1[C@@H]2[C@H](CN1C(=O)[C@@H](NC(=O)N[C@H](CN1CCN(C(C)C)S1(=O)=O)C(C)(C)C)C1CCCCC1)C2(C)C (stereo partly drawn) [Compound 5204] | ≥ 7.30 |
| CCCCC(NC(=O)[C@@H]1[C@@H]2[C@H](CN1C(=O)[C@@H](NC(=O)N[C@H](CN1CCCN(C)S1(=O)=O)C(C)(C)C)C(C)(C)C)C2(C)C)C(=O)C(N)=O (stereo partly drawn) [Compound 5160] | ≥ 7.30 |
| C=CCNC(=O)C(=O)C(CC1CCC1)NC(=O)[C@@H]1[C@@H]2[C@H](CN1C(=O)[C@@H](NC(=O)N[C@H](CN1CCN(C)S1(=O)=O)C(C)(C)C)C(C)(C)C)C2(C)C (stereo partly drawn) [Compound 5159] | ≥ 7.30 |
| C=CCNC(=O)C(=O)C(CCC(F)(F)F)NC(=O)[C@@H]1[C@@H]2[C@H](CN1C(=O)[C@@H](NC(=O)N[C@H](CN1CCCS1(=O)=O)C(C)C)C(C)(C)C)C2(C)C (stereo partly drawn) [Compound 5108] | < 7.30 |
| C=CCNC(=O)C(=O)C(CC1CC1)NC(=O)[C@@H]1[C@@H]2[C@H](CN1C(=O)[C@@H](NC(=O)N[C@H](CN1Cc3sccc3S1(=O)=O)C(C)(C)C)C1CCCCC1)C2(C)C (stereo partly drawn) [Compound 5179] | ≥ 7.30 |

Same assay, conditions: Table 2; ranges of Ki* values in HCV continuous assay

| SMILES | pKi |
| --- | --- |
| C=CCNC(=O)C(=O)C(CCC)NC(=O)[C@@H]1[C@@H]2[C@H](CN1C(=O)[C@@H](NC(=O)N[C@H](CN1Cc3ccccc3C1=O)C(C)(C)C)C(C)(C)C)C2(C)C (stereo partly drawn) [Compound 5742] | < 7.30 |
| CCCCC(NC(=O)[C@@H]1[C@@H]2[C@H](CN1C(=O)[C@@H](NC(=O)N[C@H](CN1C(=O)CC(C)(C)CC1=O)C(C)(C)C)C(C)(C)C)C2(C)C)C(=O)C(=O)NCC (stereo partly drawn) [Compound 5758] | ≥ 7.30 |
| C=CCNC(=O)C(=O)C(CCCC)NC(=O)[C@@H]1[C@@H]2[C@H](CN1C(=O)[C@@H](NC(=O)N[C@H](CN1C(=O)COCC1=O)C(C)(C)C)C(C)(C)C)C2(C)C (stereo partly drawn) [Compound 5690] | ≥ 7.30 |
| C#CCCC(NC(=O)[C@@H]1[C@@H]2[C@H](CN1C(=O)[C@@H](NC(=O)N[C@H](CN1Cc3ccccc3C1=O)C(C)(C)C)C(C)(C)C)C2(C)C)C(=O)C(=O)NCC (stereo partly drawn) [Compound 5750] | ≥ 7.30 |
| C=CCNC(=O)C(=O)C(CCCC)NC(=O)[C@@H]1[C@@H]2[C@H](CN1C(=O)[C@@H](NC(=O)N[C@H](CN1C(=O)CCCC1=O)C(C)(C)C)C1CCCCC1)C2(C)C (stereo partly drawn) [Compound 5705] | ≥ 7.30 |
| C#CCCC(NC(=O)[C@@H]1[C@H]2CC(C)(C)O[C@H]2CN1C(=O)[C@@H](NC(=O)N[C@H](CN1CCCCC1=O)C(C)(C)C)C1CCCCC1)C(=O)C(=O)NCC=C (stereo partly drawn) [Compound 5779] | ≥ 7.30 |
| C=CCNC(=O)C(=O)C(CCC)NC(=O)[C@@H]1[C@@H]2[C@H](CN1C(=O)[C@@H](NC(=O)N[C@H](CN1C(=O)CC3(CCCC3)CC1=O)C(C)(C)C)C1(C)CCCCC1)C2(C)C (stereo partly drawn) [Compound 5794] | ≥ 7.30 |
| C=CCNC(=O)C(=O)C(CCCC)NC(=O)[C@@H]1[C@@H]2[C@H](CN1C(=O)[C@@H](NC(=O)N[C@H](CN1C(=O)CNC1=O)C(C)(C)C)C(C)(C)C)C2(C)C (stereo partly drawn) [Compound 5805] | ≥ 7.30 |
| C=CCNC(=O)C(=O)C(CCCC)NC(=O)[C@@H]1[C@@H]2[C@H](CN1C(=O)[C@@H](NC(=O)N[C@H](CN1C(=O)CC(C)(C)CC1=O)C(C)(C)C)C(C)(C)C)C2(Cl)Cl (stereo partly drawn) [Compound 5756] | ≥ 7.30 |
| C=CCNC(=O)C(=O)C(CCCC)NC(=O)[C@@H]1[C@@H]2[C@H](CN1C(=O)[C@@H](NC(=O)N[C@H](CN1CCCCC1=O)C(C)(C)C)C(C)(C)C)C2(C)C (stereo partly drawn) [Compound 5652] | ≥ 7.30 |
| C=CCNC(=O)C(=O)C(CCCC)NC(=O)[C@@H]1[C@@H]2[C@H](CN1C(=O)[C@@H](NC(=O)N[C@H](CN1CCCNC1=O)C(C)(C)C)C(C)(C)C)C2(C)C (stereo partly drawn) [Compound 5663] | ≥ 7.30 |
| CC(C)(C)[C@@H](CN1C(=O)CCCC1=O)NC(=O)N[C@H](C(=O)N1C[C@H]2[C@@H]([C@H]1C(=O)NC(CC1CC1)C(=O)C(N)=O)C2(C)C)C1CCCCC1 (stereo partly drawn) [Compound 5715] | ≥ 7.30 |
| C=CCNC(=O)C(=O)C(CCC)NC(=O)[C@@H]1[C@@H]2[C@H](CN1C(=O)[C@@H](NC(=O)N[C@H](CN1Cc3ccccc3C1=O)C(C)(C)C)C1CCCCC1)C2(C)C (stereo partly drawn) [Compound 5751] | ≥ 7.30 |
| C=CCNC(=O)C(=O)C(CCC)NC(=O)[C@@H]1[C@@H]2[C@H](CN1C(=O)[C@@H](NC(=O)N[C@H](Cn1ccccc1=O)C(C)(C)C)C(C)(C)C)C2(C)C (stereo partly drawn) [Compound 5650] | ≥ 7.30 |

Same assay, conditions: Table 4; Ki* values

| SMILES | pKi |
| --- | --- |
| C=CCNC(=O)C(=O)C(CCCC)NC(=O)[C@@H]1[C@@H]2[C@H](CN1C(=O)[C@@H](NC(=O)N[C@H](CN1C(=O)CCCC1=O)C(C)(C)C)C1CCCCC1)C2(C)C (stereo partly drawn) [Compound 5705] | 8.52 |
| C=CCNC(=O)C(=O)C(CCCC)NC(=O)[C@@H]1[C@@H]2[C@H](CN1C(=O)[C@@H](NC(=O)N[C@H](CN1CCCCC1=O)C(C)(C)C)C(C)(C)C)C2(C)C (stereo partly drawn) [Compound 5652] | 7.72 |

— patent US7619094B2, “Ketoamides with cyclic P4's as inhibitors of NS3 serine protease of hepatitis C virus” (Schering Corporation, priority 2004, dated 2009)
